The test deals with human AEC2s. Kind of test: Serum-free differentiation of human AEC2s to AEC1. Particulars: SFFF 14 days, then ADM without serum + IL6 20 ng/nL. The test is classed as cell-based. An excerpt:
The medium was changed every three days.

For the substance “IL6: interleukin-6, 20 ng/mL supplement of serum-free differentiation medium”, the “differentiation of AEC2s into AEC1” value is listed as “sufficient to induce differentiation”.

These data come from patent publication US20220380734A1, “SYSTEMS AND METHODS FOR LUNG CELL EXPANSION AND DIFFERENTIATION” (DUKE UNIVERSITY, priority 2019, published 2022).
